The chains are these.
B1: LINE1-mini (parent)
chain: GGCAGAGCUCAACACAGCGUGGCAAAGUGGCUGUGGCUAGACUGCC

Read counts are not given, so values of variants with three or more changes are uncertain.

This data set covers variants of B1. The data set can be described thus: self-cleavage, relative activity (ratio to wild type); higher = more cleavage; in vitro, sequencing; the parent is a self-cleaving ribozyme.
Consider G7U A11U C37U C46U, for which the self-cleavage came to 0.02.
Consider G7U C8U A16U G27A A39U, for which the self-cleavage worked out at 0.15.
G7U C15U G21A C31U: the self-cleavage turned out to be 0.06.
Take G7C U20A A24C G27U A41U: the self-cleavage was 0.14.
Take G7C G27U G35C G40U: the self-cleavage was determined as 0.03.
As for G7U A12U C13U A14G G17A G27C, the self-cleavage worked out at 0.1.
With G7C U28C C46G, the self-cleavage was found to be 0.04.
For the variant G7U C10A G27C, the self-cleavage turned out to be 0.04.
In the case of G7U C8A A14U, the self-cleavage was determined as 0.11.
As for G7C G19U G29C A41G, the figure is 0.05.
For the variant G7U A16C G44U, the self-cleavage was determined as 0.33.
As for G7U A14G U28C, the self-cleavage turned out to be 0.03.
For G7U C23A G36A C46A, the self-cleavage came out at 0.02.
In the case of G7U A14G G21A G40A, the self-cleavage was 0.08.
As for G7U C8G A14G C18A U32A G40C, the figure is 0.02; as for G7C G21U G36C, 0.04; as for G7U C13A G30A, 0.13.
For G7C U9G U28G C46U, the self-cleavage amounted to 0.15.
Regarding G7U C8A G21C U32C, the self-cleavage came to 0.13.
Consider G7C U20G C42A U43G, for which the self-cleavage turned out to be 0.02.
On to G7U A11U U28C G40U, for which the self-cleavage is 0.
Take G7U C18U G22A C37A: the self-cleavage turned out to be 0.04.
Take G7U C15G G22A A24G U34G: the self-cleavage came to 0.33.
For the variant G7C U9G C10G, the self-cleavage was found to be 0.01.
As for G7U A26U U34A G36A, the figure is 0.06; as for G7U C31U A39G, 0.02.
As for G7U C15G G17U A24U, the figure is 0.03.
With G7C U9C A14G G22U, the self-cleavage was found to be 0.07.
As to G7U A25G A41C G44C, the self-cleavage was found to be 0.16.
Regarding G7U A12G U28A U43C, the self-cleavage is 0.01.
Turning to G7C G21C C31A G44C, the self-cleavage amounted to 0.02.
Regarding G7C U20A C23G G35A C46G, the self-cleavage was 0.03.
For G7U A12G A14U C18G C37U the value was 0.08; for G7U C15A C37G G40C, 0.03.
With G7C G29U G33C, the self-cleavage was 0.09.
As to G7U C10A C23G C46U, the self-cleavage amounted to 0.01.
With G7U C13G C18A A26U G35A U38A A41U C46U, the self-cleavage worked out at 0.03.
On to G7U C23A G35A C46A, for which the self-cleavage worked out at 0.31.
On to G7U C31U U38G, for which the self-cleavage stood at 0.02.
For the variant G7U C13A C18G U38C, the self-cleavage worked out at 0.09.
Take G7U A16C C23U G44U: the self-cleavage is 0.24.
Turning to G7U C10G G19C G29A C42U, the self-cleavage came out at 0.
G7C G35C U43G: the self-cleavage is 0.01.
For G7U C10A A11U the value was 0.04; for G7U C8U C10G G22U, 0.01.
With G7C G36A G40U, the self-cleavage was 0.69.
As for G7U A25C C31U U43A, the figure is 0.05; as for G7C G22U G27C A39C C45G, 0.02.
Take G7U C8G G19A: the self-cleavage is 0.78.
As for G7U C10U A16G, the figure is 0.01; as for G7U G17A U34G G36U C37A, 0.03; as for G7U A26C U38C, 0.03.
As to G7U A11C A24C U43C, the self-cleavage was 0.01.
For G7U C37U G40U, the self-cleavage came to 0.09.
On to G7U C10A G22A C45U C46U, for which the self-cleavage worked out at 0.02.
With G7U G17A G27C C42A, the self-cleavage turned out to be 0.07.
With G7U A24C U28A G30A, the self-cleavage turned out to be 0.01.
Take G7U C23A U28A G30U: the self-cleavage worked out at 0.01.
For G7U A26U C37U the value was 0.01.
Take G7C U9A A11U G44C: the self-cleavage was 0.02.
Consider G7U C10A G35A A39C C46G, for which the self-cleavage turned out to be 0.03.
Take G7C U20C A41U C45U: the self-cleavage turned out to be 0.09.
For G7U C13G A16G U20A G22U G35A C42A, the self-cleavage was 0.02.
For the variant G7U C15A G22C, the self-cleavage stood at 0.14.
For the variant G7C U28G C45U, the self-cleavage came out at 0.03.
For G7U A14G G36U A39G the value was 0.01; for G7U A16G U43A, 0.09; for G7U C8A G35U G40A, 0.02.
For G7U C8G C13G C23G C46U the value was 0.13; for G7C G19A G27U, 0.12; for G7U C8U C13G C23A A26C, 0.43.
G7U A14C C23G G35C: the self-cleavage worked out at 0.08.
As for G7C U32A G36U, the self-cleavage came out at 0.33.
As to G7U A14C C31U G35A, the self-cleavage is 0.01.
For the variant G7U A14G G21A, the self-cleavage was determined as 0.07.
On to G7U A11G U38C, for which the self-cleavage amounted to 0.02.
As for G7U C18U G40U C45A, the figure is 0.03; as for G7U C8U C10G G17U A26U G44U, 0.01.
Take G7U A12U C15U G29A: the self-cleavage is 0.02.
Take G7U C8U A26G A39C: the self-cleavage came to 0.16.
As to G7C G21C C31U C37A U38G, the self-cleavage came to 0.
Turning to G7U C8A A39U, the self-cleavage turned out to be 0.07.
With G7U A41U U43A, the self-cleavage amounted to 0.03.
G7U A11G C13U G22U U28G U34G: the self-cleavage is 0.01.
Take G7U A11C A14U C18U G22C G27U U32C: the self-cleavage turned out to be 0.01.
As to G7U C8G A12C A26U G44U, the self-cleavage stood at 0.02.
With G7U A12G G17U G27A, the self-cleavage turned out to be 0.04.
As to G7U A12U G33C U34C, the self-cleavage was determined as 0.07.
On to G7C G40C C45A, for which the self-cleavage turned out to be 0.07.
For G7U C18U G21A the value was 0.1; for G7U C8A U43A, 0.09; for G7U A24G G35U G36U, 0.23.
As for G7U A26C G27U U32G, the figure is 0.17.
Take G7U C15G C45U C46G: the self-cleavage came out at 0.06.
G7U C8U G19C A25C U28G G36A: the self-cleavage stood at 0.05.
Take G7C U20A G30U: the self-cleavage was 0.07.
For G7U C23U A25G the value was 0.04; for G7U C8U C10A, 0.04; for G7U G17U A24G, 0.12.
Take G7U A16U U32A U38G G40C: the self-cleavage was found to be 0.06.
Regarding G7U A14G G36C, the self-cleavage stood at 0.05.
G7U C10G C23U: the self-cleavage came out at 0.03.
On to G7U C8U G30U, for which the self-cleavage was 0.26.
For the variant G7C G40A G44C, the self-cleavage was 0.05.
Take G7C G21A C23G: the self-cleavage was 0.08.
As for G7C G19U G22A C31A U38G, the self-cleavage worked out at 0.01.
G7U A14C G19C: the self-cleavage was 0.03.
As for G7U C8U G44A, the figure is 0.57; as for G7U C8A C13A C23U, 1.22; as for G7U C15G G29U U34C A39G U43G, 0.07.
For G7U C18G U34A G36U A41U the value was 0.02.
As to G7U C13G G22A U32C, the self-cleavage is 0.09.
Regarding G7C U28A G29A G44U C46U, the self-cleavage was determined as 0.01.
In the case of G7C U9C G21U, the self-cleavage is 0.
As for G7U A11U C15U, the figure is 0.02; as for G7U C13U A14U A41C, 0.16; as for G7U A25G G29C U32A C46U, 0.04.
For G7U C10A A26G C31G C37U the value was 0.01.
For G7C U9A U20C G29C U32C C37G the value was 0.01.
With G7U C13A G21U G35C, the self-cleavage worked out at 0.15.
For the variant G7C G30U A41C, the self-cleavage turned out to be 0.06.
Consider G7U A11U C18A G22C, for which the self-cleavage was 0.01.
With G7U C8A A11C U38C, the self-cleavage came out at 0.
For G7U C15A U28C the value was 0.13.
For G7C G21A A39U, the self-cleavage was 0.11.
Turning to G7U C13U C18U U32A C45U, the self-cleavage is 0.28.
As to G7U C8A A24C G30A, the self-cleavage is 0.09.
On to G7U C8A A24U G40U, for which the self-cleavage turned out to be 0.18.
For G7U C18U C23G U28A C46U the value was 0.02; for G7U C10A G17U C18A, 0.03.
For the variant G7C U9C G27U, the self-cleavage was found to be 0.
Consider G7U A12G C23U G27C G35U C45U, for which the self-cleavage worked out at 0.01.
With G7U C8G U20A G29A, the self-cleavage was determined as 0.2.
In the case of G7U A14G G17U U32G C37G G44A, the self-cleavage was 0.06.
Consider G7U A24U G29A, for which the self-cleavage is 0.02.
Turning to G7U G17A U28G, the self-cleavage was determined as 0.03.
Consider G7C U9A G21U G40C, for which the self-cleavage was 0.02.
Consider G7U C23G A26C U34A C37A, for which the self-cleavage was 0.01.
Turning to G7U C13U U32G C46G, the self-cleavage is 0.04.
Regarding G7U C8A U9G A16C G22A, the self-cleavage worked out at 0.05.
G7U A11G C23U G30A C31U C42A C45G C46U: the self-cleavage stood at 0.01.
On to G7U C8G U38C, for which the self-cleavage came to 0.09.
With G7C G27U C37A C46A, the self-cleavage was 0.04.
Consider G7C G19C G30A A41U, for which the self-cleavage is 0.13.
For G7U C23U C37G, the self-cleavage worked out at 0.11.
As to G7U A24G C42A C46G, the self-cleavage came out at 0.47.
For G7C U28C G44C the value was 0.11; for G7C G27U U32A G35A, 0.03.
On to G7U A11U A16U C45U, for which the self-cleavage was found to be 0.02.
G7U A11G C45A: the self-cleavage is 0.04.
Take G7U C18G C45A: the self-cleavage turned out to be 0.09.
For G7U A11G C23U the value was 0.02.
Consider G7U C10A G40U, for which the self-cleavage worked out at 0.04.
For G7U C18U U28A U32C the value was 0.02; for G7U C8A C18U G29A C31U G35U, 0.37.
Regarding G7U A16C U34A U38C, the self-cleavage was 0.02.
Regarding G7U C18A U28A, the self-cleavage came to 0.02.
As for G7U C13A A26G G30U U34A, the self-cleavage amounted to 0.05.
Consider G7C U34G C42G, for which the self-cleavage is 0.01.
In the case of G7U G17C G21C A41G, the self-cleavage amounted to 0.02.
G7U A14G G29A U32C: the self-cleavage was determined as 0.24.
As for G7U C15A A16G, the self-cleavage worked out at 0.04.
For G7C G17U G19A the value was 0.03; for G7C G29C G36C A41U C46A, 0.03.
For G7C G17U G30U the value was 0.12; for G7U A12G G22U, 0.01.
Turning to G7U A11C G29A U32A, the self-cleavage turned out to be 0.02.
